Measurements from patent US20240279325A1 (Chugai, published 2024).

Target: T1, mouse FcRn (mouse, UniProt P01887 21-119, limits assumed)
T1 construct: also called mFcRn
T1 sequence 1: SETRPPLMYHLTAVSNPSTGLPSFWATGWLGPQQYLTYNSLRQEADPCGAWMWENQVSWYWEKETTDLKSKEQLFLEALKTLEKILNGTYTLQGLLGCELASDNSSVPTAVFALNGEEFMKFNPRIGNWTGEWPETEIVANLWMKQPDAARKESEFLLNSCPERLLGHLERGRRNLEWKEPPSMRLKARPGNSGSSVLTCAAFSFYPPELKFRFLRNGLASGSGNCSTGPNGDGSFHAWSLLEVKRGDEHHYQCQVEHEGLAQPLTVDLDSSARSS
T1 sequence 2: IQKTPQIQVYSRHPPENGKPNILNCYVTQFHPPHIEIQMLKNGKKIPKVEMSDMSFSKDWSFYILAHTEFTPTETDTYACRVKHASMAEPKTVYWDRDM
Test: SPR (Biacore T100), protein L capture, pH 7.0, 25 C

B1: VH3/L(WT)-F29 (antibody, human IgG1, kappa)
heavy: QVQLQESGPGLVKPSETLSLTCAVSGHSISHDHAWSWVRQPPGEGLEWIGFISYSGITNYNPSLQGRVTISRDNSKNTLYLQMNSLRAEDTAVYYCARSLARTTAMDYWGEGTLVTVSS[gap - human IgG1 constant region with I332V N434Y (EU numbers)]
light: DIQMTQSPSSLSASVGDRVTITCRASQDISSYLNWYQQKPGKAPKLLIYYTSRLHSGVPSRFSGSGSGTDFTFTISSLQPEDIATYYCQQGNTLPYTFGQGTKVEIKRTVAAPSVFIFPPSDEQLKSGTASVVCLLNNFYPREAKVQWKVDNALQSGNSQESVTEQDSKDSTYSLSSTLTLSKADYEKHKVYACEVTHQGLSSPVTKSFNRGEC
notes: copies: 2 + 2
- Kd: 85 nM
